Drawing on PubChem BioAssay AID463173 (ICCB-Longwood Screening Facility, Harvard Medical School, 2010), this text covers survival for 56 compounds.

The campaign covered roughly 52,000 compounds. About 1,700 (3.3%) were called active. Cut-off read from the data, not from the text of the source: active = survival mostly below about 52% (no sharp cut-off); inactive = mostly above about 56%. The list shows a part of the results.

In this assay the test system is Wild type. The experiment in a line: growth inhibition of S. aureus wild type versus tarO mutant, primary screen, teichoic acid synthesis inhibitors, RN4220, OD600 (AID 463173). Particulars: S. aureus RN4220 wild type/DeltatarO growth, OD600, 18 h, active compounds read low, screened at 18.75 µg/mL (by protocol).
With `O=S(=O)(c1ccc(F)cc1)N1CCC(n2c(C(F)(F)F)nc3cccnc32)CC1`, the survival was inactive: 68%.
Under `COc1ccc(N2CCN(C(=O)CN(C)S(=O)(=O)c3cccs3)CC2)cc1` stands inactive: 89%; under `COc1ccc(NC(=O)CSc2c3c(nc4ccccc24)CCC3)c(OC)c1`, inactive: 117%.
Turning to `CCOC(=O)c1ccccc1NC(=O)c1sc2ccccc2c1Cl`, the survival was inactive: 37%.
Under `COc1ccc(-c2cn3nc(N4CCCC(C(=O)NCc5ccccc5C)C4)sc3n2)cc1` (stereo unspecified) stands inactive: 66%; under `CCN(CC)C(=O)Cn1c(=O)cc(C)c2c(C)nn(C)c21`, inactive: 135%; under `COc1ccc(Cn2ccnc2SCC(=O)Nc2cc(C(F)(F)F)ccc2Cl)cc1`, inactive: 68%.
Under `COc1cccc(Nc2sc(C(=O)c3ccc(F)cc3)c(N)c2C(=O)NCc2ccc(C)cc2)c1` stands inactive: 63%; under `COc1cc(CNc2ccc3c(c2)ncn3C(C)C)cc(OC)c1OC`, inactive: 66%; under `O=C(CN(CCc1ccccc1)S(=O)(=O)c1ccccc1)NCc1ccc(Cl)cc1`, inactive: 80%.
The result for `Fc1ccccc1OCc1nc(-c2ccc(-n3cccc3)cc2)no1` reads inactive: 95%.
Turning to `CN(Cc1ccc(F)cc1)S(=O)(=O)c1nnc(NC(=O)c2ccc(F)cc2)s1`, the survival is inactive: 71%.
Regarding `COc1cccc(NC(=O)CSCn2nnc3c(=O)[nH]c(Cc4ccc(F)cc4)nc32)c1`, the survival was inactive: 85%.
As for `O=C(Nc1ccccc1Cl)C1CCN(c2nc3ccccc3[nH]2)CC1`, the survival was inactive: 66%.
As for `Nc1cc(=O)[nH]c(SCC(=O)N(c2ccccc2)c2ccccc2)n1`, the survival is inactive: 111%.
As to `Cc1ccc(Cl)cc1N1CCN(C(=O)c2cc(S(=O)(=O)N3CCCCCC3)cn2C)CC1`, the survival is inactive: 81%.
Under `Cc1cc(Cl)ccc1Nc1ncnc2onc(C)c12` stands inactive: 86%.
Under `O=C(CSc1nc2c([nH]c3ccccc32)c(=O)n1-c1ccccc1F)Nc1ccccc1C(F)(F)F` stands inactive: 60%.
The result for `CC1CCC[S+](c2cc(O)ccc2O)C1` (stereo unspecified) reads inactive: 103%.
Consider `COC(=O)c1ccc2c(c1)N(CC(=O)Nc1cccc(C(F)(F)F)c1)C(=O)c1ccccc1S2`, for which the survival is inactive: 77%.
`CCOC(=O)c1ccc(NC(=O)C2CC(=O)N3CCCN=C3S2)cc1` (stereo unspecified): the survival is inactive: 104%.
With `Cc1ccc2c(c1)CC(C)N2S(=O)(=O)c1nnc(NC(=O)c2ccccc2F)s1` (stereo unspecified), the survival was inactive: 28%.
The result for `CC(C)c1ccccc1NC(=O)CN(c1ccccc1)S(=O)(=O)N(C)C` reads inactive: 79%.
Under `CC(C)(C)n1nnnc1C(c1ccccn1)N1CCN(c2cccc(C(F)(F)F)c2)CC1` (stereo unspecified) stands inactive: 99%.
Under `CCOc1ccc(CNC(=O)c2[nH]c3ccccc3c2Sc2ccc(C)cc2)cc1` stands inactive: 120%; under `O=C(Cn1ccn(-c2cccc(Cl)c2)c(=O)c1=O)c1ccc(F)cc1`, inactive: 81%.
Consider `O=C(NCCCN1CCN(c2ccc(F)cc2)CC1)c1sc2ncccc2c1-n1cccc1`, for which the survival is inactive: 32%.
The result for `COc1ccc(OC)c(S(=O)(=O)N2Cc3ccccc3CC2C(=O)Nc2ccc(Cl)cc2)c1` (stereo unspecified) reads inactive: 78%; that for `Cc1ccc2c(c1)C(=O)C(=O)N2Cc1ccc(OC(C)C)cc1`, inactive: 62%; that for `COc1ccc(CNc2nccs2)cc1OC`, inactive: 112%.
As for `CCOC(=O)c1cc(-c2ccccc2)n(CCC(=O)Nc2ccc(C)cc2Cl)c1C`, the survival was inactive: 113%.
In the case of `Oc1c(CN2CCOCC2)cc(CN2CCOCC2)cc1CN1CCOCC1`, the survival was inactive: 116%.
Under `Cc1ccc(-n2nc(CO)c(C(=O)NCCCCc3ccccc3)n2)cc1` stands inactive: 121%.
Under `Cc1cc(C)cc(NC(=O)CCS(=O)(=O)c2ccc3nc(C)sc3c2)c1` stands inactive: 82%.
The result for `O=C1C(c2ccc(F)cc2)N(Cc2ccccc2Cl)C(=O)CN1C1CCCCC1` (stereo unspecified) reads inactive: 81%.
Regarding `Cc1ccc(C(=O)N2CCC(N3CCN(Cc4ccc(F)cc4)C(=O)C3=O)CC2)cc1`, the survival was inactive: 78%.
For `CCOc1ccc(-c2nn(-c3ccccc3)cc2C2NC(=O)NC(C)=C2C(=O)OC(C)C)cc1C` (stereo unspecified), the survival was inactive: 70%.
Under `CCN(CC)CCn1c2c(c(SCC(=O)Nc3cccc(C(F)(F)F)c3)nc1=O)CCC2` stands inactive: 91%; under `Cc1cccc(CNC(=O)Cc2ccc(NC(=O)N3CCCCc4ccccc43)cc2)c1`, inactive: 77%.
Consider `CCOc1ccc(-c2cn3c(n2)sc2cc(C(=O)NCCCN(CC)CC)ccc23)cc1`, for which the survival was active: 2%.
Take `COc1ccc(CCNC(=O)CCCCn2c(=O)c3ccccc3n(Cc3ccc(Cl)cc3)c2=O)cc1OC`: the survival was inactive: 105%.
Under `COc1cccc(CNC(=O)c2oc3ccc4c(c3c2C)C(=O)CC(C)(C)O4)c1OC` stands inactive: 84%.
Regarding `COc1ccc(CNC(=O)c2cc3c(=O)n4cccc(C)c4nc3s2)cc1`, the survival is inactive: 95%.
The result for `Cc1ccc(C(=O)O/N=C(/c2nonc2N)N(C)C)cc1` reads inactive: 113%.
For `CCOC(=O)c1ccc(NC(=O)C(C)N(c2ccc(OCC)cc2)S(C)(=O)=O)cc1` (stereo unspecified), the survival is inactive: 84%.
The result for `Cc1c(C(=O)Nc2ccc(F)c(F)c2)oc2ccc(S(=O)(=O)N(C)C3CCCCC3)cc12` reads inactive: 74%.
Under `CCOC(=O)c1[nH]c(C)c(CCC(=O)NC(C)c2ccccc2)c1C` (stereo unspecified) stands inactive: 72%.
Under `Cc1ccc(N(C)C(=O)Cn2cc(S(=O)(=O)N3CCCC3)c(S(=O)(=O)N3CCCC3)c2)cc1` stands inactive: 73%.
As to `Cc1ccc(C(=O)Nc2nc(-c3nnn(-c4cccc(Cl)c4C)c3C)ns2)cc1C`, the survival is inactive: 136%.
Under `COc1cccc(-c2nc(CS(=O)(=O)CC(=O)NCCc3ccc(OC)c(OC)c3)c(C)o2)c1` stands inactive: 79%; under `COc1ccc(NC(=O)c2oc3c(c2C)-c2nn(Cc4ccccc4Cl)cc2CC3)cc1OC`, inactive: 80%; under `Cc1ccc(-n2c(=O)c3c(cnn3C)n(CC(=O)Nc3c(C)cccc3C)c2=O)cc1`, inactive: 87%.
Under `C=Cc1ccc(CSc2nnc(C)n3c2cc2occc23)cc1` stands inactive: 30%; under `Cn1c(=O)c2c(n3ncnc13)NC(=O)CC2c1cccc(F)c1` (stereo unspecified), inactive: 85%; under `COc1ccc(NS(=O)(=O)c2ccc3c(c2)CC(C)N3C(C)=O)c(OC)c1` (stereo unspecified), inactive: 85%.
As to `CCOC(=O)C1=C(CN2CCN(c3cccc(OC)c3)CC2)NC(=O)NC1c1ccc(OC)cc1` (stereo unspecified), the survival is inactive: 92%.
